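Compound exposure: 48 hours, 5 concentrations, 96-well plates. GI50 marks 50% less growth.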 Certain results were filed several times, with different values. The list is limited to them. An entry can have further records. For some of these results: A record mostly stands for its own series of concentrations, not given here; some values may only mark the edge of a range. Records carry a tag for their origin. Letters count within one entry. For some of these results: Values that stand side by side are repeats (runs, samples, wells, individuals or studies).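 TGI is the concentration that stops growth completely.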
Columns and labels:
Experiment in all cases: inhibition of tumour cell growth, NCI panel, 48 h
SF-539 CNS = tested on: SF-539 CNS
ACHN renal = tested on: ACHN renal
CAKI-1 renal = tested on: CAKI-1 renal
DU-145 prostate = tested on: DU-145 prostate
HOP-62 NSCLC = tested on: HOP-62 NSCLC
HOP-92 NSCLC = tested on: HOP-92 NSCLC
LOX IMVI melanoma = tested on: LOX IMVI melanoma
MOLT-4 leukemia = tested on: MOLT-4 leukemia
NCI-H226 lung = tested on: NCI-H226 lung
NCI/ADR-RES ovarian = tested on: NCI/ADR-RES ovarian
OVCAR-3 ovarian = tested on: OVCAR-3 ovarian
OVCAR-4 ovarian = tested on: OVCAR-4 ovarian
OVCAR-8 ovarian = tested on: OVCAR-8 ovarian
PC-3 prostate = tested on: PC-3 prostate
SF-295 CNS = tested on: SF-295 CNS
SK-MEL-2 melanoma = tested on: SK-MEL-2 melanoma
SK-OV-3 ovarian = tested on: SK-OV-3 ovarian
SN12C renal = tested on: SN12C renal
SNB-75 CNS = tested on: SNB-75 CNS
TK-10 renal = tested on: TK-10 renal
UO-31 renal = tested on: UO-31 renal
786-0 renal = tested on: 786-0 renal
EKVX NSCLC = tested on: EKVX NSCLC
HCC-2998 colon = tested on: HCC-2998 colon
HT29 colon = tested on: HT29 colon
M14 melanoma = tested on: M14 melanoma
MALME-3M melanoma = tested on: MALME-3M melanoma
NCI-H522 lung = tested on: NCI-H522 lung
OVCAR-5 ovarian = tested on: OVCAR-5 ovarian
RXF 393 renal = tested on: RXF 393 renal
SF-268 CNS = tested on: SF-268 CNS
SK-MEL-28 melanoma = tested on: SK-MEL-28 melanoma
U251 CNS = tested on: U251 CNS

CN1CCN(c2ccc3[nH]c(C4=C(O)c5nc(CCl)n(C)c5C(=O)C4=O)nc3n2)CC1
TGI (SF-539 CNS): > 50 µM and 4.8 µM

CN1N=C(N)c2cn(C3OC(COP(=O)(O)O)C(O)C3O)c3ncnc1c23 (stereo unspecified)
TGI (ACHN renal): 93.2 µM, 1.65 mM, 251 µM | TGI (CAKI-1 renal): 154 µM, 1.65 mM, 11.7 µM | TGI (DU-145 prostate): 36.6 µM, 95.6 µM, 1.36 mM, 183 µM | TGI (HOP-62 NSCLC): 63.2 µM, 390 µM, 1.65 mM, 1.67 mM | TGI (HOP-92 NSCLC): 9.13, 5.53, 53.7, 1.36 µM | TGI (LOX IMVI melanoma): 24.6, 32.3, 167, 289 µM | TGI (MOLT-4 leukemia): 71.6 µM, 1.65 mM, 285 µM | TGI (NCI-H226 lung): 1.65 mM [1 test] and 170 µM [mean of 3 tests] and 111 µM [mean of 8 tests] | TGI (NCI/ADR-RES ovarian): 47 µM, 1.65 mM [1 test] and 108 µM [mean of 11 tests] and 189 µM [mean of 4 tests] | TGI (OVCAR-3 ovarian): 117 µM, 1.65 mM, 664 µM | TGI (OVCAR-4 ovarian): 84.2 µM, 1.65 mM, 115 µM | TGI (OVCAR-8 ovarian): 19.1, 41.9, 422, 46.3 µM | TGI (PC-3 prostate): 95.4 µM, 1.65 mM, 109 µM | TGI (SF-295 CNS): 379 µM, 1.65 mM, > 5 mM | TGI (SK-MEL-2 melanoma): 77.1 µM, 64 µM, 1.16 mM, 131 µM | TGI (SK-OV-3 ovarian): 86.1 µM, 1.65 mM, 32 µM | TGI (SN12C renal): 69.2 µM, 159 µM, 1.65 mM, 174 µM | TGI (SNB-75 CNS): 34.7 µM, 85 µM, 149 µM [1 test] and 162 µM [mean of 9 tests] | TGI (TK-10 renal): 137 µM, 1.65 mM, 111 µM | TGI (UO-31 renal): 130 µM, 1.65 mM, 66.8 µM

CC(C)(O)/C=C/C(=O)[C@](C)(O)[C@H]1[C@H](O)C[C@@]2(C)[C@@H]3CC=C4[C@@H](C=C(O)C(=O)C4(C)C)[C@]3(C)C(=O)C[C@]12C
TGI (786-0 renal): 463 nM [sample A, mean of 3 tests] and 64.9 nM [sample B, 1 test] and 2.5 µM [sample B, mean of 5 tests] | TGI (ACHN renal): 822 nM [sample A, mean of 4 tests] and 10.5 µM [sample B, 1 test] and 3.92 µM [sample B, mean of 5 tests] | TGI (EKVX NSCLC): > 4.88 µM [sample A] and 6.27 µM, < 10 nM [sample B] | TGI (HCC-2998 colon): > 3.96 µM [sample A, mean of 3 tests] and 385 nM [sample B, 1 test] and 8.9 µM [sample B, mean of 5 tests] | TGI (HOP-62 NSCLC): 1.11 µM [sample A, mean of 4 tests] and 35.6 nM [sample B, 1 test] and 3.65 µM [sample B, mean of 5 tests] | TGI (HOP-92 NSCLC): 457 nM [sample A, mean of 4 tests] and 51 nM [sample B, 1 test] and 1.72 µM [sample B, mean of 5 tests] | TGI (HT29 colon): > 7 µM [sample A] and 137 nM [sample B] | TGI (M14 melanoma): 3.41 µM [sample A] and 6.66 µM, 17 nM [sample B] | TGI (MALME-3M melanoma): 1.5 µM [sample A] and 5.1 µM, 95.6 nM [sample B] | TGI (NCI-H226 lung): 683 nM [sample A, mean of 4 tests] and 51.3 nM [sample B, 1 test] and 2.02 µM [sample B, mean of 5 tests] | TGI (NCI-H522 lung): 1.02 µM [sample A, mean of 3 tests] and 76.3 nM [sample B, 1 test] and 3.31 µM [sample B, mean of 4 tests] | TGI (OVCAR-3 ovarian): 1.18 µM [sample A] and 3.99 µM, 69.9 nM [sample B] | TGI (OVCAR-5 ovarian): > 10 µM [sample A] and 766 nM [sample B] | TGI (RXF 393 renal): 466 nM [sample A] and 1.24 µM, 18.9 nM [sample B] | TGI (SF-268 CNS): 665 nM [sample A] and 2.7 µM, 48.5 nM [sample B] | TGI (SF-295 CNS): 806 nM [sample A, mean of 4 tests] and 52.6 nM [sample B, 1 test] and 7.13 µM [sample B, mean of 5 tests] | TGI (SF-539 CNS): 574 nM [sample A, mean of 4 tests] and < 10 nM [sample B, 1 test] and 1.08 µM [sample B, mean of 5 tests] | GI50 (SK-MEL-28 melanoma): 209 nM [sample A, mean of 4 tests] and < 10 nM [sample B, 1 test] and 624 nM [sample B, mean of 5 tests] | GI50 (SK-OV-3 ovarian): 357 nM [sample A, mean of 3 tests] and < 10 nM [sample B, 1 test] and 933 nM [sample B, mean of 4 tests] | TGI (SK-OV-3 ovarian): > 4.42 µM [sample A, mean of 3 tests] and 66.9 nM [sample B, 1 test] and 5.53 µM [sample B, mean of 4 tests] | TGI (SN12C renal): > 10 µM [sample A, mean of 4 tests] and 68.4 nM [sample B, 1 test] and 7.98 µM [sample B, mean of 5 tests] | TGI (SNB-75 CNS): 470 nM [sample A, mean of 3 tests] and < 10 nM [sample B, 1 test] and 1.98 µM [sample B, mean of 4 tests] | TGI (U251 CNS): 663 nM [sample A, mean of 4 tests] and 50.8 nM [sample B, 1 test] and 2.39 µM [sample B, mean of 5 tests] | TGI (UO-31 renal): 395 nM [sample A, mean of 4 tests] and < 10 nM [sample B, 1 test] and 3.74 µM [sample B, mean of 5 tests]

C[C@H](NC(=O)c1c(N)nn2cccnc12)c1cc2cccc(C#Cc3cnn(C)c3)c2c(=O)n1-c1ccccc1
GI50 (MALME-3M melanoma): > 10 µM [sample A, 1 test] and 722 nM [sample B, 1 test]

Source: PubChem BioAssay (NCI)
